# The campaign covered roughly 310,000 compounds. About 2,200 (0.71%) showed an effect of 50% or more. The effect is printed as a negative number. The list shows a part of the results.
# Molecular target: human ether-à-go-go-related gene (hERG) potassium channel (human, UniProt Q12809)
# Test: primary screen, population patch clamp on CHO cells stably expressing hERG
# Chain of human ether-à-go-go-related gene (hERG) potassium channel (Q12809 whole entry, looked up): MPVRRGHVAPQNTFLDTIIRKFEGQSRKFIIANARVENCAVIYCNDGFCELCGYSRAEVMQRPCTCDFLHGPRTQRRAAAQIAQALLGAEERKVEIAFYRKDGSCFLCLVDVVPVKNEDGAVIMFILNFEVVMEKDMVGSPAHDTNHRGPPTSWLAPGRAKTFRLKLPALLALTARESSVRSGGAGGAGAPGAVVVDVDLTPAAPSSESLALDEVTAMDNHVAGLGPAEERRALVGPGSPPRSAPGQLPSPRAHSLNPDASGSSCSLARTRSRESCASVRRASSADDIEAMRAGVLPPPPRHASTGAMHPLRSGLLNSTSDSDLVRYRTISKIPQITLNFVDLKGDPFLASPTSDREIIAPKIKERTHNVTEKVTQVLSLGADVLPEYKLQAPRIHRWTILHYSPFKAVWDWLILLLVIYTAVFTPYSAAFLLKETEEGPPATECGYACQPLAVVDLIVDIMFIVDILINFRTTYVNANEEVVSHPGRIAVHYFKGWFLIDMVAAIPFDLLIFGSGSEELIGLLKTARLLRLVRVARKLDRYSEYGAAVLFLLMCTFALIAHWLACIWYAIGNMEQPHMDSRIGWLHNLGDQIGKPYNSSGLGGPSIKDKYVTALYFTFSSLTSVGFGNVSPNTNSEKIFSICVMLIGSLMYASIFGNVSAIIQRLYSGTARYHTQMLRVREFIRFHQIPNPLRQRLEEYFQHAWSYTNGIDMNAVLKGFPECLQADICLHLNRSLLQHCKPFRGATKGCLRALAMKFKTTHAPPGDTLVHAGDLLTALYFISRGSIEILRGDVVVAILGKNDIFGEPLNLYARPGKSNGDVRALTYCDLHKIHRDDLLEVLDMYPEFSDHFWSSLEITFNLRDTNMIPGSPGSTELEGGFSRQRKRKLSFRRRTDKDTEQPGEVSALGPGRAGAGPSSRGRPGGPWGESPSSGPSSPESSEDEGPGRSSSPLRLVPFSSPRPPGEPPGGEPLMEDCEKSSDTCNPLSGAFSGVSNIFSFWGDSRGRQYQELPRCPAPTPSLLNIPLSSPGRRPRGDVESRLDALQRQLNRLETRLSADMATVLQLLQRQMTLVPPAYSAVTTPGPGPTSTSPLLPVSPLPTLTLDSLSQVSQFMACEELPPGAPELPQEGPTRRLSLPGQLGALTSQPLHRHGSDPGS
row,SMILES,"hERG current change (%, negative = inhibition) at 1uM [%]"
1,O=C(CNC(=O)c1ccc(F)cc1)N/N=C/c1ccc(O)c([N+](=O)[O-])c1,6.48
2,CCC(Oc1ccccc1)C(=O)NC1C(=O)N2C1SC(C)(C)C2C(=O)[O-].[K+] (stereo not shown),7.87
3,Cc1ncc(S(=O)(=O)c2ccc(Cl)cc2)c(-c2ccccc2)n1,7.86
4,CCOc1ccc(-n2c(SCC(=O)O)nc3sc4c(c3c2=O)CCCC4)cc1,11
5,CC1(C)CC(=O)C(C=NCc2ccc3c(c2)OCO3)=C(O)C1,3.16
6,CCCSc1nc2c(cnn2-c2ccc(C)cc2)c(=O)[nH]1,11.5
7,COc1ccc(-c2noc(N3CCC(C(=O)NC(C)c4ccccc4)CC3)n2)cc1 (stereo not shown),-7.07
8,CN(C(=O)COC(=O)c1nc(Cl)ccc1Cl)c1ccccc1,13.3
9,CCOC(=O)c1[nH]c(C)c(C(=O)NCc2cccnc2)c1C,7.42
10,O=c1c(C=Nc2ccc(Oc3ccccc3)cc2)c[nH]n1-c1cccc(Cl)n1,15.5
11,CCOc1ccc(N/C=C/C(=O)c2ccc(C)cc2)c([N+](=O)[O-])c1,9.82
12,Nc1ccc2oc(CCc3ccccc3)nc2c1,2.88
13,CC(C(=O)NC1CCCCCC1)c1ccc([N+](=O)[O-])cc1 (stereo not shown),15.5
14,O=C1/C(=C\c2ccco2)CCC/C1=C\c1ccco1,11.9
15,O=C(CCCn1c(SCC(=O)c2ccc(Cl)cc2)nc2ccccc2c1=O)NCc1ccco1,8.48
16,O=C(NN1C(=O)NC2(CCCCC2)C1=O)c1ccc(Cl)s1,12
17,COC(=O)CP(=O)(c1ccccc1)c1ccccc1,14.7
18,N#Cc1c(NC(=O)C(=O)NCCCN2CCOCC2)sc2c1CCCC2,25
19,CC(C)CCNC(=O)Cn1c(NCCC(C)C)nc2c1c(=O)n(C)c(=O)n2C,2.78
20,CCn1c(CN2CCCCC2)nc2cc(S(=O)(=O)N3CCCCC3)ccc21,7.6
21,CCOc1ccccc1N(C)C(=O)c1ccc2c(=O)n3c(nc2c1)CCCCC3,13.4
22,COc1cccc(NC(=S)N2C3CCCC2CC(NC(=O)C2CC2)C3)c1 (stereo not shown),15.7
23,COCc1cc(C)nc(OCC(=O)N/N=C/c2cc(C)n(-c3c(C)cccc3C)c2C)c1C#N,14.6
24,Cc1c(CN2CCc3c([nH]c4ccccc34)C2CC(C)C)cnn1C (stereo not shown),-4.85
25,COCCOc1cc(COC)nc(-c2cccc(C)c2)n1,10.3
26,CC(CN1CCN(C)CC1)OC(=O)c1cccc(Cl)c1.Cl (stereo not shown),4.12
27,COc1ccccc1N1CCN(C(=O)C2CCN(C(=O)c3cccc(Cl)c3)CC2)CC1,9.66
28,COc1ccc(N2CCN(S(=O)(=O)CCNC(=O)C3CCCCC3)CC2)cc1,11.9

row,SMILES,"hERG current change (%, negative = inhibition) at 1uM [%]"
1,C=CCOc1ccc(/C=C/C(=O)OCC(=O)NCC(=O)Nc2c(C)cc(C)cc2C)cc1,6.11
2,O=C1CN(C(=O)N[C@@H](Cc2ccccc2)C(=O)N[C@H](C(=O)O)c2ccccc2)c2ccccc2N1,23.8
3,O=C(C1CCCN(Cc2nc(-c3cccs3)no2)C1)N1CCOCC1 (stereo not shown),19.7
4,CC(C)CC(=O)Nc1nc2ccc(S(C)(=O)=O)cc2s1,4.38
5,COc1ccc(N2CCN(C(=O)C(=O)c3cn(CC(=O)N4CCCCCC4)c4ccccc34)CC2)cc1,-11.2
6,CCn1c2c(c3cc(C(=O)O)ccc31)CCCC2=O,16.7
7,O=C(COC(=O)CCc1ccc(S(=O)(=O)N2CCOCC2)cc1)NCc1ccccc1,5.89
8,FC(F)(F)c1nnc2c3ccccc3c(Cl)nn12,19.4
9,CC(C)OC(=O)Nc1ccc2c(c1)N(C(=O)N1CCN(C)CC1)c1ccccc1CC2.O=C(O)C(=O)O,0.862
10,OC(CCN1CCOCC1)(c1ccc(Cl)cc1)C1CCCCC1 (stereo not shown),7.61
11,COc1ccc(CC(=O)N(C)CC(=O)Nc2cccc(F)c2)cc1S(=O)(=O)N1CCOCC1,11.3
12,Cc1cc(C)nc(N(C#N)Cc2ccccc2)n1,1.61
13,COc1ccccc1C(=O)NC(=O)COC(=O)c1cccc(OC(F)F)c1,8.76
14,Cc1onc(-c2c(Cl)cccc2Cl)c1C(=O)NCCN1CCOCC1,9.38
15,O=C(N1CCOCC1)N(Cc1ccco1)CC1CCCO1 (stereo not shown),-11.8
16,COc1cccc(CN2CCNC(=O)C2CC(=O)NCc2cn3ccccc3n2)c1OC (stereo not shown),21.8
17,O=C(Cn1nnnc1CN1CCOCC1)N1CCC(c2cccc(Cl)c2)C1 (stereo not shown),4.36
18,O=C(Nc1ccccc1)c1nccn1Cc1ccc(F)cc1,11.3
19,Cn1c(SCC(=O)NCC2CCCO2)ncc(C(=O)Nc2ccc(Cl)cc2)c1=O (stereo not shown),-7.82
20,CCN1CCN(CCNC(=O)c2ccc3nc(-c4cccc(C)c4)c(-c4cccc(C)c4)nc3c2)CC1,-1.25
21,CC(=O)c1ccc(NC(=O)C(C)OC(=O)c2ccc(NS(=O)(=O)c3ccc(F)c(F)c3)cc2)cc1 (stereo not shown),7.25
22,Nc1nonc1-n1nnc(C(=O)N/N=C/c2c[nH]c3ccccc23)c1-c1ccccc1,11.5
23,Cc1ccc(N(C(=O)CNC(=O)c2cccs2)C(C(=O)NC2CCCC2)c2ccncc2)cc1 (stereo not shown),18.8
24,O=C(CSc1nnc(-c2cccs2)n1C1CC1)NC1CCS(=O)(=O)C1 (stereo not shown),8.58
25,O=C(NCCN1CCOCC1)[C@H](Cc1ccccc1)N1C(=O)c2ccccc2C1=O,5.81
26,O=C(NNC(=O)c1csc(N2CCOCC2)n1)c1cccnc1,10.9
27,CC(=O)N1N=C(c2ccccc2)CC1c1cn(Cc2ccccc2)c2ccccc12 (stereo not shown),3.58
